Laboratory results: PubChem BioAssay AID1458 (National Center for Advancing Translational Sciences (NCATS), 2008)
In all, about 210,000 compounds went through this assay and about 5,900 (2.8%) were called active. Inconclusive means that the source gave no clear call. Such entries were picked first, then a sample of the others. The call rests on the fitted dose curve; in most records, active means well fitted activation curve with a large enough effect; inconclusive means small, poorly fitted or top-dose-only effect; inactive means no such curve, though single readings can be large or run the other way. Potencies of inconclusive entries are doubtful fits and often do not repeat.

Assay: qHTS Assay for Enhancers of SMN2 Splice Variant Expression; further: nearly all actives have a fitted effect of over 55% in size; on activity change, positive = activation: % of control where 0% means no effect
Details: HEK293 SMN2-luciferase splicing reporter, luminescence, 30-36 h; activity change, positive = activation: at 46.1 µM (top of the series)
Method in brief: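 HEK293 cells carry an SMN2 […]–luciferase reporter in which exon 7 inclusion puts luciferase in frame. Cells were plated 10-12 h before compound addition, then incubated 30-36 h at 37C. ONE-Glo luminescence was read; sodium butyrate at 4.5 mM final served as control.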
Potency means the concentration at half of the fitted maximal effect; tags describe the fitted curve by direction and shape.

Row | Compound | Potency | activity change, positive = activation
1 | CCN(CC)C(=O)CSc1ncnc2c(-c3cccs3)nsc12 | inactive | –
2 | COc1ccc(NC(=O)CSc2ccccn2)cc1 | inconclusive: 11.2 µM [activator, partial curve] | –
3 | COc1ccc(C(C)=O)cc1COC(=O)c1cnc(C)cn1 | active: 2.24 µM | –
4 | CC(=O)Nc1ccc(S(=O)(=O)N/N=C/c2ccc(C)s2)cc1 | inconclusive: 15.8 µM [activator, single point] | –
5 | CC(=O)Nc1ccc(NC(=O)N2CCCCC2)cc1 | inconclusive: 10 µM [activator, partial curve] | –
6 | Cc1cc(C(=O)CN2C(=O)NC(c3ccccc3)(c3ccccc3)C2=O)c(C)n1Cc1ccco1 | inconclusive: 2.51 µM [activator, single point] | –
7 | COC(=O)c1[nH]c2ccc(C)cc2c1NC(=O)C1=COCCO1 | inactive | –
8 | [N-]=[N+]=Nc1nc2c(N)ncnc2n1C1OC(CO)C(O)C1O (configuration not stated) | inactive | –
9 | COc1cc(/C=C/C(=O)OCC(=O)N2CCN(S(=O)(=O)c3ccc(C)cc3C)CC2)ccc1O | inactive | –
10 | Cc1cc(/C=C2/NC(=O)NC2=O)c(C)n1-c1ccc(C#N)cc1 | inactive | –
11 | Cc1ccccc1C(=O)O/N=C(\N)c1cccc([N+](=O)[O-])c1 | inconclusive: 5.62 µM [activator, partial curve, poor fit] | –
12 | c1ccc2[nH]c(NN=C3CCCCCC3)nc2c1 | active: 11.2 µM | –
13 | O=C(N/N=C/c1ccc(-c2ccccc2Cl)o1)c1ccccc1 | inconclusive: 15.8 µM [activator, single point] | –
14 | CCSC1(SCC)N=C(N)C2(C#N)C(c3ccccc3)NC(C)=C(C)C12C#N (configuration not stated) | inconclusive: 0.708 µM [activator, full curve, poor fit] | –
15 | Cc1c(C(=O)OCc2ccccc2)nnn1-c1nonc1N | inactive | –
16 | O=C(c1ccco1)N1CCC[C@@]2(CCN(C(c3ccccc3)c3ccccc3)C2)C1 | inactive | –
17 | CCn1c(SCC(=O)Nc2ccc(C(C)=O)cc2)nc2ccccc21 | inconclusive: 8.91 µM [activator, partial curve] | –
18 | Cc1cc(SCC(=O)Nc2ncc(Cl)cc2Cl)nc2ccccc12 | inconclusive: 22.4 µM [activator, single point] | –
19 | Cc1ccc(C)c2[nH]c(=O)c(CN(CCN3CCCC3)C(=O)Nc3cccc(Cl)c3)cc12 | inactive | –
20 | COC(=O)CCN1CCC(C(N)=O)CC1 | inconclusive: 0.631 µM [activator, full curve] | –
21 | CCSc1nnc(NC(=O)c2cccnc2)s1 | inconclusive: 31.6 µM [activator, partial curve] | –
22 | O=C(C[n+]1cccc(CNC(=O)c2ccc(OC(F)F)cc2)c1)Nc1cccc(C(F)(F)F)c1 | inconclusive: 6.31 µM [activator, single point] | –
23 | C/C(=N\NC(=O)COc1ccc(C(C)(C)C)cc1)c1ccccc1 | inactive | –
24 | O=C(NNC(=O)c1ccccc1O)c1ccco1 | inconclusive: 0.316 µM [activator, partial curve, poor fit] | –

Row | Compound | Potency | activity change, positive = activation
25 | Cc1ccc2nc3c(cc(C(=O)NCc4ccco4)c(=N)n3C(C)C)c(=O)n2c1 | inactive | –
26 | COc1ccc(-c2cc(C(=O)N/N=C/c3sccc3C)c3ccccc3n2)c(OC)c1 | inconclusive: 31.6 µM [activator, single point] | –
27 | O=C(Nc1nccs1)c1ccc(-c2ccccc2Cl)o1 | active: 11.2 µM | –
28 | Cc1cccc(OCC(=O)O/N=C(\N)c2ccccn2)c1C | inconclusive: 22.4 µM [activator, single point] | –
29 | O=C(Nc1ccccc1SCC1CSc2nc3ccccc3c(=O)n21)c1ccccc1Cl (configuration not stated) | inconclusive: 4.47 µM [activator, single point] | –
30 | CCN(C(=O)COc1ncnc2sccc12)c1ccccc1 | inactive | –
31 | CC(=O)N1CCc2cc(S(=O)(=O)NC(Cc3ccccc3)C(=O)NCc3ccccc3Cl)ccc21 (configuration not stated) | inactive | –
32 | CNc1[nH]ncc1[N+](=O)[O-] | inconclusive: 20 µM [activator, single point] | –
33 | O=C(Oc1ccc(-c2cnc3ccccc3n2)cc1)c1ccc(Cl)c([N+](=O)[O-])c1 | inconclusive: 35.5 µM [activator, single point] | –
34 | COc1ccc(CCNC(=O)CCC(=O)Nc2nnc(C(C)C)s2)cc1OC | inactive | –
35 | N#Cc1cnn2c3c(cnc12)C(=O)N1CCc2ccccc2C1C3 (configuration not stated) | inconclusive: 7.94 µM [activator, partial curve, poor fit] | –
36 | CC(=C/c1ccccc1)/C=N/NC(=O)c1ccc2nc[nH]c2c1 | inconclusive: 11.2 µM [activator, partial curve, poor fit] | –
37 | O=C(COC(=O)COc1ccccc1Cc1ccccc1)Nc1cccnc1Cl | active: 5.62 µM | –
38 | COc1ccc2nc(C)cc(Nc3ccc(N4CCOCC4)cc3)c2c1 | inconclusive: 8.91 µM [activator, partial curve, poor fit] | –
39 | NC(=O)N/N=C1\CC[C@H](O)C[C@@H]1CC(=O)O | – | inactive: 19.1% [at 9.22 µM]
40 | Cc1cc(OCCN2CCOCC2)ccc1[N+](=O)[O-] | inconclusive: 35.5 µM [activator, single point] | –
41 | COc1ccccc1C(=O)NCC(=O)OCc1csc(-c2ccccc2)n1 | inconclusive: 17.8 µM [activator, partial curve, poor fit] | –
42 | O=c1sc2ccccc2n1CCOc1ccccc1 | inconclusive: 15.8 µM [activator, single point] | –
43 | CN/N=C(\Cc1nc2ccccc2[nH]1)c1ccc([N+](=O)[O-])cc1 | inconclusive: 15.8 µM [activator, single point] | –
44 | CC1=CC(=C(C#N)c2nc3ccccc3s2)C=C(C)N1c1ccc(F)cc1 | inconclusive: 15.8 µM [activator, single point] | –
45 | CC(=O)C(Sc1ccc2nnc(-c3ccncc3)n2n1)C(C)=O | – | inconclusive: 31% [activator]
46 | COC(=O)c1ccccc1S(=O)(=O)N(Cc1cc2cc3c(cc2[nH]c1=O)OCO3)C1CCCCC1 | inconclusive: 31.6 µM [activator, partial curve] | –
47 | COc1ccc(-n2c(Cn3nnc4ccccc43)nnc2SCC(=O)O)cc1 | inconclusive: 0.199 µM [activator, full curve, poor fit] | –
48 | COc1ccc(/C=C2\SC(=S)N(CC(=O)Nc3nnc(C)s3)C2=O)cc1 | inactive | –

Row | Compound | Potency | activity change, positive = activation
49 | Cc1ccccc1C(=O)Nc1nnc(SC(C)C)s1 | inconclusive: 0.0089 µM [activator, partial curve, poor fit] | –
50 | COc1cccc(N=c2oc3ccc(OC)cc3cc2-c2nc3ccccc3[nH]2)c1 | inconclusive: 10 µM [activator, partial curve] | –
51 | c1ccc(CCNc2nnnn2-c2ccccc2)cc1 | inconclusive: 1.26 µM [activator, full curve] | –
52 | Cc1c(C(=O)Nc2ccc3oc(-c4cccnc4)nc3c2)oc2ccccc12 | inactive | –
53 | CCCCCCN(C(=O)CCCCCN1C(=O)NC(c2ccc([N+](=O)[O-])cc2)C(C(=O)OCc2ccccc2)=C1C)C(C(=O)NCCCC)c1ccc(OCC(=O)OC)c(C(=O)OC)c1 (configuration not stated) | inconclusive: 10 µM [activator, single point] | –
54 | COC(=O)CNC(=O)c1ccc(=O)oc1 | inconclusive: 5.62 µM [activator, partial curve, poor fit] | –
55 | CC(=O)N(C)Cc1ccc(C(=O)CCl)cc1 | inconclusive: 15.8 µM [activator, single point] | –
56 | c1ccc(C(Cc2nc(-c3cccnc3)no2)c2ccccc2)cc1 | inactive | –
57 | COc1ccc(OC)c2c1sc(=NC(=O)c1ccco1)n2C | inactive | –
58 | CC(C)CNC(=O)CCCc1c[nH]c2ccccc12 | inactive | –
59 | COc1cccc(-n2nc(C(N)=O)c(O)cc2=O)c1 | inconclusive: 35.5 µM [activator, single point] | –
60 | CCOc1nc(NC(=O)NS(=O)(=O)c2cccc(Cl)c2)nc(-c2ccccc2)n1 | inconclusive: 1 µM [activator, full curve, poor fit] | –
61 | CCCCCC1OC1C/C=C\C/C=C\C/C=C\CCCC(=O)O (configuration not stated) | inactive | –
62 | O=C(O)c1ccc(N/N=C/C=C/c2ccccc2[N+](=O)[O-])cc1 | active: 8.91 µM | –
63 | Cc1ccccc1OCC(=O)NC1=NCCS1 | active: 12.6 µM | –
64 | Cc1ccc2c(c1)Cc1nc3ccccc3nc1-2 | inconclusive: 1.26 µM [activator, single point] | –
65 | CC(C(=O)N/N=C/c1ccc(N(C)C)c(Br)c1)N(c1ccccc1)S(C)(=O)=O (configuration not stated) | inconclusive: 2.24 µM [activator, partial curve] | –
66 | CCc1c(C)c2cc(Cl)c(O)c(CN(C)C)c2oc1=O | inconclusive: 11.2 µM [activator, partial curve, poor fit] | –
67 | COCCn1c(=O)[nH]c(=O)c2c1nc(-c1ccc(-c3ccc(Cl)cc3[N+](=O)[O-])o1)n2Cc1ccccc1 | inconclusive: 17.8 µM [activator, single point] | –
68 | COc1ccc(Nc2nc3c(S(=O)(=O)c4ccccc4)nnn3c3ccc(Cl)cc23)c(OC)c1 | inactive | –
69 | Cc1ccccc1NC(=S)NC12CN3CN(CN(C3)C1)C2 | inactive | –
70 | Fc1ccc(Sc2nc(-c3ccccc3)nnc2C(F)(F)F)cc1 | inconclusive: 3.55 µM [activator, partial curve, poor fit] | –
71 | CCOc1ccc(C(=O)Nc2ccc(Cl)cn2)cc1Cl | inconclusive: 22.4 µM [activator, single point] | –
72 | COc1cc(NC(=O)c2noc3c2CCC3)c(OC)cc1Cl | inconclusive: 0.005 µM [activator, full curve] | –
